# Measured values reported in paper PMC4336329 (PLoS ONE, 2015).
# In all, about 310,000 compounds went through this assay and about 2,200 (0.71%) showed an effect of 50% or more. Effects have a minus sign here. This is one part of the list.
# Target: human ether-à-go-go-related gene (hERG) potassium channel (human, UniProt Q12809)
# Experiment: primary screen, population patch clamp on CHO cells stably expressing hERG
# Chain of human ether-à-go-go-related gene (hERG) potassium channel (Q12809 whole entry, looked up): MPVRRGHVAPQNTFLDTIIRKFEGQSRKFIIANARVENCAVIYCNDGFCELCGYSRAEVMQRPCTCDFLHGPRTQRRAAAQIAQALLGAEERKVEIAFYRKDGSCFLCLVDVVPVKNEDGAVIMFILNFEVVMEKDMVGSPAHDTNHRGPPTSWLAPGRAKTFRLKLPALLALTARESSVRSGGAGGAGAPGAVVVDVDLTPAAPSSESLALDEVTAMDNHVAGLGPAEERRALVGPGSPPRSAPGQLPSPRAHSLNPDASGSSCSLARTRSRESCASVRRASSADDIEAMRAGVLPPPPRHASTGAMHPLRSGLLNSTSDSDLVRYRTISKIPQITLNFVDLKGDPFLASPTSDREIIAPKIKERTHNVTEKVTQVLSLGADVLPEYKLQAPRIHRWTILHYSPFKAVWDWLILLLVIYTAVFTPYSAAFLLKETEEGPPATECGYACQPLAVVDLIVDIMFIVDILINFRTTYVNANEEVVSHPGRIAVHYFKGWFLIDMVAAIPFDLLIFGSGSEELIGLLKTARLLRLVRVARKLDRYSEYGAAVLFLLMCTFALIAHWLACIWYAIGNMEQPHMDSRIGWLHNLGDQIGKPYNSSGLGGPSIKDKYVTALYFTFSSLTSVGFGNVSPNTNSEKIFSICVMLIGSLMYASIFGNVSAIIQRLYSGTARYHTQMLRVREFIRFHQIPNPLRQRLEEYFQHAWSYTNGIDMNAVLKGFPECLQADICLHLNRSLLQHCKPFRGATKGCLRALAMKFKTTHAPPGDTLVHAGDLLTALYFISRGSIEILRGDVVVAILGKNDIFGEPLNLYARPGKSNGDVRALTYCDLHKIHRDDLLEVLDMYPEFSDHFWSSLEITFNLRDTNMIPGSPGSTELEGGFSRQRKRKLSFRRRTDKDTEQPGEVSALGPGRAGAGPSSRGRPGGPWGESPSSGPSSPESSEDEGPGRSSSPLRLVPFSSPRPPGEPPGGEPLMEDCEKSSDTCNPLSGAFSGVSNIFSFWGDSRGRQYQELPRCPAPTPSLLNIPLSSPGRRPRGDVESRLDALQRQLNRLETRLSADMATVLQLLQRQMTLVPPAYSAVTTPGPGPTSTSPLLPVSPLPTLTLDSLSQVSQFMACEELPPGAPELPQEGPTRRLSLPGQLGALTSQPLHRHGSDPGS
row,SMILES,"hERG current change (%, negative = inhibition) at 1uM [%]"
1,Cc1ccc(C2=NCC(=O)Nc3ccc(Br)cc32)cc1,9.52
2,Cc1cc(OCC(=O)N2CCCC2)cc(C)c1Cl,4.03
3,O=[N+]([O-])c1c(Nc2cccc(O)c2)cc(Cl)c2nonc12,7.11
4,O=C(COC(=O)c1ccc(O)cc1)Nc1ccc(OC(F)F)cc1,-2.14
5,CCc1ccc(Nc2cc(C)nc3nc(C)nn23)cc1,-9.83
6,COC(=O)c1ccc(OCC(=O)c2ccc(C)c(C)c2)cc1,5.68
7,CCC/C(=N\NC(=O)c1ccccc1C)c1ccccc1,12.7
8,COCCNC(=O)C(Cc1c[nH]c2ccccc12)NC(=O)OCc1ccccc1 (stereo not shown),10.8
9,CCOC(=O)c1ccc(CNCc2ccccc2)cc1,4.25
10,CCOC(=O)N1CCC(N(C(=O)Nc2ccc(CC)cc2)C(C)CC)CC1 (stereo not shown),-1.23
11,CCN(C(=O)CSc1nnc(-c2ccncc2)o1)c1ccccc1,13.2
12,COc1ccc(-c2cn[nH]c2-c2ccc(O)cc2O)cc1OC,10.8
13,Cc1ccc(N2C(=O)C(Cl)=C(N3CCCCCC3)C2=O)cc1,17
14,O=C(Nc1ccc(Cl)cc1)N1CCC(c2nc(-c3ccc(F)cc3)no2)CC1,9.17
15,COc1ccc(C(c2nnnn2C2CCCCC2)N2CCN(C)CC2)c(OC)c1 (stereo not shown),0.861
16,C=CCn1c(SCC(=O)N(C)C)nc2sc3c(c2c1=O)CCC3,7.26
17,COc1ccc(C(=O)NC(=S)NNC(=O)CCc2ccccc2)cc1,18.5
18,CCOc1ccc(S(=O)(=O)N/N=C(\C)C2CCCCC2)cc1,5.35
19,CCCCCCCCCCn1cc(C(C)=O)c(=O)[nH]c1=O,6.85
20,CC(=O)NC1(c2ccccc2)CCN(c2nc(C)cc(C)n2)CC1,12.1
21,Clc1ccc(N2CCN(/N=C/c3ccncc3)CC2)cc1,9.28
22,CCOc1ccc(CC2CCC(=O)NC2=O)cc1 (stereo not shown),-6.71
23,C=CCn1c(CNc2ccc(C)cc2)nnc1SCC(=O)N/N=C/c1ccc(O)cc1O,-2.46

row,SMILES,"hERG current change (%, negative = inhibition) at 1uM [%]"
1,COC(=O)c1ccccc1NC(=O)CSc1n[nH]c(-c2cccnc2)n1,10.7
2,COc1ccc(Nc2cc(C(=O)N3CCc4ccccc4C3)c3ccccc3n2)c(OC)c1,10.8
3,O=C(N/N=C/c1cc(Br)c(Br)o1)c1ccc2c(c1)OCCO2,13.2
4,Cc1[nH]n(C(N)=S)c(=O)c1N=Nc1cccc(C(F)(F)F)c1,10.3
5,CC1CCC(C(C)C)C(OP(N)(=O)c2ccccc2)C1 (stereo not shown),1.84
6,O=C(NNC1CC(c2ccccc2)=NN1C(=O)c1ccccc1)c1ccccc1 (stereo not shown),5.4
7,C=CCN(c1ccccc1)S(=O)(=O)c1cc(C(=O)NC2=NCCS2)ccc1Cl,24.3
8,COc1cc(OCC(=O)NC(C)C)cc2c1C(=O)O[C@@H](C)CCCC(=O)CCCCC2,13.7
9,CC(C)CCNC(=O)c1ccc(CSCc2cccc(F)c2)o1,-5.66
10,CC(C)(C)c1ccc(OCCCC(=O)N2CCOCC2)cc1,-2.13
11,COc1ccc(NC(=O)CSc2nnc(Cc3cccn3C)n2CCc2ccccc2)cc1OC,6.95
12,O=C(CC12CC3CC(CC(C3)C1)C2)NCC(=O)OCc1cc(=O)oc2ccc3ccccc3c12,15.4
13,COc1ccccc1N(CC(=O)NC(C)(C)C)C(=O)Cn1nnc(-c2ccc(C)o2)n1,2.5
14,O=C(C1CC1)N1CCN(c2ccc([N+](=O)[O-])cc2-n2cccc2)CC1,8.87
15,CCn1c(SCC(=O)OC)nc2sc3c(c2c1=O)CC(C)(C)OC3,6.58
16,Cc1ccc(-c2nc(SCC(=O)N(C)C3CCS(=O)(=O)C3)[nH]c2-c2ccc(C)cc2)cc1 (stereo not shown),-7.85
17,CN(Cc1ccc(Cl)cc1Cl)C(=O)CN1C(=O)NC2(CCCC2)C1=O,-16.9
18,COc1ccc(NC(=S)NC2CCS(=O)(=O)C2)cc1 (stereo not shown),9.64
19,CS(=O)(=O)N(CC(=O)Nc1ccccc1C(=O)N1CCOCC1)c1cccc([N+](=O)[O-])c1,7.66
20,O=C(O)CC(SCC(=O)Nc1ccc(Cl)c(S(=O)(=O)N2CCOCC2)c1)C(=O)O (stereo not shown),1.04
21,C/C=C1/CC(C)C(C)(O)C(=O)OCC2CCN3CCC(OC1=O)C23 (stereo not shown),15.5
22,Cn1c(=O)c2c(O)cc(=O)[nH]c2n(-c2ccccc2)c1=O,14.6
23,NS(=O)(=O)c1ccc(CNC(=O)/C=C/c2ccc(S(=O)(=O)N3CCOCC3)cc2)cc1,14.7

row,SMILES,"hERG current change (%, negative = inhibition) at 1uM [%]"
1,Cc1ccccc1N1CCN(CC(=O)Nc2nccs2)CC1,13.2
2,Cc1cc(=O)n2nc(N3CCC(C(=O)NCCc4ccccc4)CC3)sc2n1,7.6
3,COC(=O)NCCOc1cc(C)ccc1C,-1.4
4,Cc1ccnc(N(C(=O)c2cccs2)C(=O)c2cccs2)c1,14
5,COc1ccc(-c2nnc(-c3cc(OC)c(OC)c(OC)c3)o2)cc1OC,6.64
6,O=C1CC(c2ccccc2)NC(=O)N1 (stereo not shown),-4.53
7,O=C(CC1C(=O)NCCN1Cc1ccc(F)cc1)NCCOc1cccnc1 (stereo not shown),5.15
8,CCCCNC(=O)c1cc2c(=O)n3cccc(C)c3nc2s1,12.1
9,COc1cc(NS(=O)(=O)c2ccc(NC(=O)CCC(=O)O)cc2)nc(OC)n1,5.38
10,CC(C)c1cc(C(=O)NC2CCCCC2)no1,2.37
11,Cc1ccc(CNc2ncccc2-c2nc3cc(Cl)ccc3o2)cc1,11.6
12,CC1CCC(C(C)C)C(OCC(O)CNC(C)c2ccccc2)C1.Cl (stereo not shown),10.7
13,COc1ccc(NS(=O)(=O)c2c(C)cc(C)cc2C)cc1,8.76
14,Cc1nnc(SCC(=O)N2CCCC(N3CCN(c4ccc(F)cc4)CC3)C2)o1 (stereo not shown),8.65
15,Cc1cc(NS(=O)(=O)c2ccc(NC(=O)CSc3nc4ncc(Cl)cc4[nH]3)cc2)nc(C)n1,9.5
16,COc1cccc(/C=C(/C#N)c2nc3ccccc3[nH]2)c1OC(C)C(=O)O (stereo not shown),12
17,O=C(O)COc1ccccc1,14.1
18,CCOC(=O)c1n[nH]n2c1nc(=S)c1ccccc12,7.67
19,CCOC(=O)c1sc(N)c(C#N)c1COC(=O)C1=COCCO1,13.3
20,CC(=O)N1CCN(CC(=O)Nc2cc(S(=O)(=O)N3CCOCC3)ccc2C)CC1,4.27
21,O=C(O)C1CC=CCC1C(=O)Nc1ccc(N2CCN(Cc3ccccc3)CC2)cc1 (stereo not shown),17.8
22,COc1ccc(NC(=S)/N=C(\N)Nc2nc(C)c3ccc(C)cc3n2)cc1,2.25
23,COc1ccc(C(=O)NCC(C)NC(=O)c2ccc(OC)cc2)cc1 (stereo not shown),7.94

row,SMILES,"hERG current change (%, negative = inhibition) at 1uM [%]"
1,COc1cc(NC(=O)CCNC(=O)Cn2cnc3sc4c(c3c2=O)CCCC4)cc(OC)c1OC,11.9
2,CN(C)c1ccc(-c2nc3ccccc3c(=O)[nH]2)cc1,4.81
3,CN1CCN(CCCNC(=O)c2ccc(CSCc3cccc(Cl)c3)o2)CC1,1.54
4,COc1cc(/C=N/Nc2ccnc(=O)[nH]2)ccc1O,11.3
5,COc1ccc(OC)c(NC(=O)c2cc(-c3cc(C)c(C)cc3O)n[nH]2)c1,17.2
6,O=C1CCC(C(=O)N2CCC(CO)CC2)CN1Cc1ccc(Cl)cc1 (stereo not shown),10.2
7,CCOCCn1c(COc2ccccc2)nc2ccccc21,-13.9
8,CN(Cc1ccco1)C(=O)c1ccc(N2CCCC2=O)cc1,16.8
9,COc1ccc(S(=O)(=O)N2CCCCCC2)cc1C(=O)N(CC(C)C)C1CCS(=O)(=O)C1 (stereo not shown),6.16
10,COc1ccc(OC)c(/C(O)=C/C(=O)C(=O)Nc2cc(C)ccc2OC)c1,15.4
11,COc1ccc(C)cc1NC(=O)CCN1CC(C)OC(C)C1.Cl (stereo not shown),13.4
12,CCS(=O)(=O)Nc1c(C(=O)O)[nH]c2ccccc12,-14.3
13,CC(Cc1ccccc1)NC(=O)c1cc([N+](=O)[O-])ccc1Cl (stereo not shown),7.31
14,Cc1ccc(S(=O)(=O)N2CCC(C(=O)NNC(=O)c3ccccc3O)CC2)cc1,8.01
15,CCCN(CCC)S(=O)(=O)c1cccc(C(=O)N=c2sccn2C)c1,14.1
16,O=C(CCc1nc2ccccc2[nH]1)N1CCN(C(=O)c2ccco2)CC1,9.26
17,CSC(=Nc1ccccc1)C1=C(O)COC1=O,11.4
18,COc1ccccc1NC(=O)COC(=O)c1ccc(N2CCCC2=O)cc1,8.92
19,Cc1ccc(-n2c(SCC(N)=O)nc3c(oc4ccccc43)c2=O)cc1,14.1
20,Cl.c1ccc(CCNCc2ccccc2)cc1,8.02
21,Cc1ccc(OCCNC(=O)/C=C/c2ccccc2)cc1C,1.58
22,COc1ccccc1CNC(=O)[C@@H]1CCCN1C(=O)C1CCN(S(=O)(=O)c2ccc(C)cc2)CC1,1.74
